Results reported in PMC4336329 (PLoS ONE, 2015).
About 2,200 (0.71%) of roughly 310,000 compounds showed an effect of 50% or more. Effects have a minus sign here. This is one part of the list.

Target: human ether-à-go-go-related gene (hERG) potassium channel (human, UniProt Q12809)
Test: primary screen, population patch clamp on CHO cells stably expressing hERG

human ether-à-go-go-related gene (hERG) potassium channel, sequence (Q12809 whole entry, looked up): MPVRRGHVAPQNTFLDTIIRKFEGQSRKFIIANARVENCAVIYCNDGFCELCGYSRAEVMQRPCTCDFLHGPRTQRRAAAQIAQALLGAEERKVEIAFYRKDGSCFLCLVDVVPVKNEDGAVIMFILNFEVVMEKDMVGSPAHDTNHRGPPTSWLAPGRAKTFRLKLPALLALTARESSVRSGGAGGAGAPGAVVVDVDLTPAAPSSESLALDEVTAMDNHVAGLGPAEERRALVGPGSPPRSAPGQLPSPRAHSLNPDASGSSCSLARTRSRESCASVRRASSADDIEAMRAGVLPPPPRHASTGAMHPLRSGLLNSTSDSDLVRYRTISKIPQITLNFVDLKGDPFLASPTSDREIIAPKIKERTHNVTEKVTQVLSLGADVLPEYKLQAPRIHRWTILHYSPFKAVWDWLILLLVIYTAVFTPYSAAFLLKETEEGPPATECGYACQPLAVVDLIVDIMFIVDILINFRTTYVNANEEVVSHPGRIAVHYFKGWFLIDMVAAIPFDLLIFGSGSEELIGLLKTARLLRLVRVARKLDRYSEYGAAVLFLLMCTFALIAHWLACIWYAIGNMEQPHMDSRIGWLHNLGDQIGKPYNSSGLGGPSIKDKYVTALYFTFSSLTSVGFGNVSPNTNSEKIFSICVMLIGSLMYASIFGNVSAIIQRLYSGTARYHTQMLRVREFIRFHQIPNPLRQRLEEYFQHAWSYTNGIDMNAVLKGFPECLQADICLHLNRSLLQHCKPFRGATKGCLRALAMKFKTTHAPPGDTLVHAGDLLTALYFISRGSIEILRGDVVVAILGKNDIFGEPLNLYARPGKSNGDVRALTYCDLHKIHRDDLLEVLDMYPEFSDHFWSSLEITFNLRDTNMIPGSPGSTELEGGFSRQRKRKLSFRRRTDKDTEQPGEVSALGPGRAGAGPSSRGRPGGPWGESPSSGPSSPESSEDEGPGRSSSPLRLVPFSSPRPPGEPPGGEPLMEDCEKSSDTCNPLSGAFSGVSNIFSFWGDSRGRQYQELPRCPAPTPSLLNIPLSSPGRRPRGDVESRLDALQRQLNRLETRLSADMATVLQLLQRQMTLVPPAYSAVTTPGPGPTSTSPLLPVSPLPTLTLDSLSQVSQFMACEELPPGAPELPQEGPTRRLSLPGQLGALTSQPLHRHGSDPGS

| SMILES | hERG current change (%, negative = inhibition) at 1uM |
| --- | --- |
| N#CC(c1ccc(Cl)cc1)c1ccc2c(C(F)(F)F)cc(C(F)(F)F)nc2n1 (stereo not shown) | 8.23% |
| O=C(c1ccc2c(c1)OCO2)C1CCCN(Cc2ccccc2OC(F)F)C1 (stereo not shown) | -16.9% |
| COc1cc2c(c(OC)c1CC=C(C)C)C[C@H](c1ccc(O)cc1O)CO2 | 18.2% |
| O=C(O)C(Cc1c[nH]c2ccccc12)NS(=O)(=O)c1cccc(Cl)c1Cl (stereo not shown) | 14.1% |
| O=C(COc1cccc(C(F)(F)F)c1)NCC(c1cccs1)N1CCOCC1 (stereo not shown) | -5.17% |
| Cc1cc(=O)oc2cc(OC(=O)c3cncc(Br)c3)ccc12 | 10.6% |
| COc1ccc(C2/C=C\CN(C(=O)c3ccc(C)cc3)CC(=O)N2Cc2ccc(F)cc2)cc1 (stereo not shown) | 2.19% |
| O=C(COC(=O)c1cccc(S(=O)(=O)N2CCOCC2)c1)Nc1ccc(Cl)cn1 | -4.49% |
| O=C(CSc1nc(Cc2ccccc2)nc2ccccc12)Nc1nc2c(s1)CCCC2 | 15.9% |
| COCc1ccc(-c2c(-c3ccccc3OC)sc3cc4c(cc23)OCO4)cc1 | 13.3% |
| COc1ccccc1NC(=O)/C=C\C(=O)O | 14.5% |
| COc1cccc(CNC(=O)c2cccs2)c1 | 2.23% |
| O=c1oc2ccccc2c(NCc2cccc(F)c2)c1[N+](=O)[O-] | 1.4% |
| COCc1c(C(=O)NCc2ccccc2CN2CCCC2)oc2ccccc12 | -34% |
| O=c1[nH]c(/C=C/c2cccc([N+](=O)[O-])c2)c([N+](=O)[O-])c(=O)[nH]1 | 6.3% |
| Cc1ccc(-c2csc(NC(=O)c3cccc(C)c3)c2C(=O)O)cc1 | 15.8% |
| CCOc1ccc(NC2c3ccccc3C(=O)N2Cc2ccc3c(c2)OCO3)cc1 (stereo not shown) | 8.68% |
| CCOc1ccc(N(CC(=O)NCc2ccc3c(c2)OCO3)C(=O)c2csnn2)cc1 | 13.2% |
| CC(C)CCN(C(=O)C1CSC2(C)CCC(=O)N12)c1c(N)n(Cc2ccccc2)c(=O)[nH]c1=O (stereo not shown) | 12.2% |
| Cc1ccc(-c2ccc(S(=O)(=O)N3CC(C)OC(C)C3)cc2)cc1 (stereo not shown) | 12.4% |
| C#CCOc1ccc(/C=N/O)cc1Cl | 12.1% |
| O=C(c1cccc(Cl)c1)C1CCCN(Cc2cccc3cnccc23)C1 (stereo not shown) | 12.1% |

| SMILES | hERG current change (%, negative = inhibition) at 1uM |
| --- | --- |
| CCC(C)n1c(-c2cccc(S(=O)(=O)N(CC)CC)c2)n[nH]c1=S (stereo not shown) | 16.4% |
| N#C/C(=C(/O)COC(=O)CSc1ccc(Cl)cc1)c1nc2ccccc2[nH]1 | 14.2% |
| CCN(CC)S(=O)(=O)c1ccc(N2CCCC2)c(NC(=O)c2c(-c3ccccc3)noc2C)c1 | 13.4% |
| CCCc1cc(=O)oc2cc(OCC(=O)N3CCN(C(=O)C4COc5ccccc5O4)CC3)ccc12 (stereo not shown) | -4.16% |
| C/C(=N\NC(N)=O)c1ccc(Cl)s1 | 18.5% |
| COc1cc(-c2c(-c3cc(OC)c(OC)c(OC)c3)noc2C)ccc1F | 10.9% |
| Cc1ccccc1C(=O)NCCNC(=O)c1ccccn1 | 12.9% |
| Cc1cc(S(=O)(=O)NCC(C)C)ccc1OCC(=O)NCc1ccccn1 | 0.901% |
| COc1ccc(CNC(=O)CCN2C(=O)[C@@H]3Cc4ccccc4CN3C2=O)cc1 | 7.79% |
| COc1ccc(N2CC(C(=O)Nc3cc(C(F)(F)F)ccc3N3CCCC3)CC2=O)c(OC)c1 (stereo not shown) | 8.09% |
| CN(Cc1ccccc1)CC(O)COc1ccc(CNCCc2cccnc2)cc1 (stereo not shown) | -1.66% |
| COC(=O)c1ccc(N/N=C/c2cc([N+](=O)[O-])cc(OC)c2O)cc1 | 7.2% |
| CNC(=S)N(CCc1c(C)[nH]c2ccc(C)cc12)Cc1cc(OC)c(OC)c(OC)c1 | 14.8% |
| Cc1ccc(N(C(=O)c2ccc(S(=O)(=O)N(C)C)cc2)C2C=CS(=O)(=O)C2)cc1 (stereo not shown) | 14.5% |
| CC(=O)c1ccc(NC(=O)c2ccc(S(=O)(=O)c3ccccc3)cc2)cc1 | 8.83% |
| Cc1ccc(-c2csc3nc4cc(C(=O)NC5CCC(O)CC5)ccc4c(=O)n23)cc1 (stereo not shown) | 5.66% |
| CCS(=O)(=O)N1CCC(C(=O)NCCc2ccccc2)CC1 | 10.5% |
| C/C(=C/C#N)Nc1ccc(C)cc1 | 7.26% |
| CCCCn1c(N)c(N(CC(C)C)C(=O)c2cc(S(=O)(=O)N3CCOCC3)ccc2Cl)c(=O)[nH]c1=O | 5.97% |
| CCOc1ccc(Oc2nc(Nc3ccc(C)cc3)nc(N(C)C)n2)nn1 | 15.4% |
| COc1ccc(Cn2c(CO)cnc2SCC(=O)Nc2cccc(NC(C)=O)c2)cc1 | 16.8% |
